Starred links: 1 amine or outer side, 2 acyl side, 3 side chain; linkers in the order of their positions; H or OH if unused. Positions of bridges follow the written chain, without caps; N, C: chain ends. Residues, ends and D or L forms follow the SMILES beside them. Chains are numbered I, II in the order given. X1 = O=C1CC([*:2])C(=O)N1CCCCCC(=O)[*:1]
Experiments:
[1] = tested on: murine bone marrow-derived macrophages (BMDMs); test: Cellular uptake (internalization) by flow cytometry in BMDM; assay type: cell-based, mouse; conditions: Cf-labelled compounds, 2.5 µM, 2 h (Figure 2a)
[2] = tested on: MonoMac6 human monocytes (MM6); test: Cellular uptake (internalization) by flow cytometry in MonoMac6; conditions: Cf-labelled compounds, MM6, 2.5 µM, 2 h (Figure 2b)

Structure (SMILES): CC[C@H](C)[C@H](NC(=O)CNC(=O)[C@H](Cc1ccccc1)NC(=O)[C@@H](N)Cc1ccccc1)C(=O)N[C@@H](CC(N)=O)C(=O)N[C@H](C(=O)N[C@H](C(=O)N1CCC[C@H]1C(=O)N[C@H](C(=O)N[C@@H](C)C(=O)N[C@@H](CSC1CC(=O)N(CCCCCC(=O)NCCCC[C@H](NC(=O)[C@@H](NC(=O)[C@H](CC(C)C)NC(=O)[C@H](CCCNC(=N)N)NC(=O)[C@@H](NC(=O)[C@H](CC(N)=O)NC(=O)[C@H](CC(N)=O)NC(=O)[C@H](C)NC(=O)[C@@H](NC(=O)[C@H](CC(C)C)NC(=O)[C@H](CCCCN)NC(C)=O)C(C)C)[C@@H](C)O)[C@@H](C)O)C(=O)N2CCC[C@H]2C(=O)N[C@@H](CCCCN)C(=O)NCC(=O)NCC(=O)N[C@@H](CC(C)C)C(=O)N[C@H](C(=O)N[C@@H](CC(=O)O)C(=O)N[C@H](C(=O)N[C@@H](C)C(=O)N2CCC[C@H]2C(=O)N[C@@H](Cc2c[nH]cn2)C(=O)N[C@@H](CCC(N)=O)C(=O)N[C@H](C(=O)N[C@@H](CO)C(=O)N[C@@H](CO)C(=O)N[C@H](C(N)=O)C(C)C)[C@@H](C)CC)[C@@H](C)CC)[C@@H](C)CC)C1=O)C(N)=O)[C@@H](C)CC)[C@@H](C)CC)[C@@H](C)O (some centres unmarked) [A(P)I, KLVANNTRL-TKmal(FFGINTIPIAC)PKG-GLIDIAPHQISSV] (I: Ac-KLVANNTRLTKPKGGLIDIAPHQISSV-NH2 / II: H-FFGINTIPIAC-NH2; linker I:11-II:11 via X1; N-terminus and C-terminus assumed)
- cellular uptake (internalization), in words [1]: higher than the uptake of the short epitope peptides
- cellular uptake (internalization), in words [2]: higher than the uptake of the short epitope peptides

Source: PMC6789589, “A Convenient Synthetic Method to Improve Immunogenicity of Mycobacterium tuberculosis Related T-Cell Epitope Peptides” (Vaccines, 2019)
